Reference: paper PMC12820563, “FoxP3 forms a head-to-head dimer in vivo and stabilizes its multimerization on adjacent microsatellites”
The list shows a part of the results.

Target: T1, MBP-FoxP1dN (Mus musculus, UniProt P58462 326-579)
T1 sequence: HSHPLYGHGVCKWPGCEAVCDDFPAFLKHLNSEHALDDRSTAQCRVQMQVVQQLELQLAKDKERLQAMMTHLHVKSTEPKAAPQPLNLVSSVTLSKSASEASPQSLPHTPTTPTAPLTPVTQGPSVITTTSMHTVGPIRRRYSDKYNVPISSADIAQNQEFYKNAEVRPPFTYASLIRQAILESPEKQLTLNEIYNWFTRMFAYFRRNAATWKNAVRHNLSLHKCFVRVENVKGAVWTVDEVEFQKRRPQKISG
Test: PD-seq (MBP pull-down with sequencing); 20 mM Tris-HCl pH 7.5, 100 mM NaCl, 1.5 mM MgCl2, 0.4 uM protein, 0.1 uM dsDNA library, 30 min, room temperature, amylose pull-down; high values mean tight binding
Conditions: protein: recombinant; tags: His6-MBP; chain copies: 2; dsDNA, one strand shown
Procedure, shortened: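 Amylose resin was used to capture complexes formed during 30 min at room temperature in Tris pH 7.5 buffer with NaCl and MgCl2 between 0.4 µM His6-MBP-tagged mouse FoxP3 or FoxP1 fragment lacking the N-terminus, expressed in E. coli, and 0.1 µM Klenow-filled double-stranded degenerate DNA library. After three washes, the DNA was released with proteinase K, barcoded by PCR and sequenced on Illumina. Binding is pooled-replicate reads-per-million enrichment, pull-down over input.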

Sequence | binding signal
GATGATTGTTCTCCCAGCTGATGAATTCCTGACGTCGAGTAAACAAATTTTCCTAATCTTTCTGTTCAAGCGCCATCTAC | 0.839 RPM ratio (pull-down/input)
GATGATTGTTCTCCCAGCTGATGAATTATTGAGGTCGAGTAAACAAATTTTCCTAATCTTTCTGTTCAAGCGCCATCTAC | 0.946 RPM ratio (pull-down/input)
GATGATTGTTCTCCCAGCTGATGAATTGCGCCGATCGAGTAAACAAATTTTCCTAATCTTTCTGTTCAAGCGCCATCTAC | 1.03 RPM ratio (pull-down/input)
GATGATTGTTCTCCCAGCTGATGAATTGTCGCCTTCGAGTAAACAAATTTTCCTAATCTTTCTGTTCAAGCGCCATCTAC | 0.995 RPM ratio (pull-down/input)
GATGATTGTTCTCCCAGCTGATGAATTATTCGACTCGAGTAAACAAATTTTCCTAATCTTTCTGTTCAAGCGCCATCTAC | 1.04 RPM ratio (pull-down/input)
GATGATTGTTCTCCCAGCTGATGAATTCAAGCGTTCGAGTAAACAAATTTTCCTAATCTTTCTGTTCAAGCGCCATCTAC | 0.967 RPM ratio (pull-down/input)
GATGATTGTTCTCCCAGCTGATGAATTTGAAACCTCGAGTAAACAAATTTTCCTAATCTTTCTGTTCAAGCGCCATCTAC | 0.838 RPM ratio (pull-down/input)
GATGATTGTTCTCCCAGCTGATGAATTTAATATATCGAGTAAACAAATTTTCCTAATCTTTCTGTTCAAGCGCCATCTAC | 0.958 RPM ratio (pull-down/input)
GATGATTGTTCTCCCAGCTGATGAATTCAGCCATTCGAGTAAACAAATTTTCCTAATCTTTCTGTTCAAGCGCCATCTAC | 0.828 RPM ratio (pull-down/input)
GATGATTGTTCTCCCAGCTGATGAATTCAGTAGTTCGAGTAAACAAATTTTCCTAATCTTTCTGTTCAAGCGCCATCTAC | 0.824 RPM ratio (pull-down/input)
GATGATTGTTCTCCCAGCTGATGAATTGTACATTTCGAGTAAACAAATTTTCCTAATCTTTCTGTTCAAGCGCCATCTAC | 1.05 RPM ratio (pull-down/input)
GATGATTGTTCTCCCAGCTGATGAATTGCGAAGCTCGAGTAAACAAATTTTCCTAATCTTTCTGTTCAAGCGCCATCTAC | 1.01 RPM ratio (pull-down/input)
GATGATTGTTCTCCCAGCTGATGAATTGTCAGTATCGAGTAAACAAATTTTCCTAATCTTTCTGTTCAAGCGCCATCTAC | 1.01 RPM ratio (pull-down/input)
GATGATTGTTCTCCCAGCTGATGAATTTCTGATCTCGAGTAAACAAATTTTCCTAATCTTTCTGTTCAAGCGCCATCTAC | 0.84 RPM ratio (pull-down/input)
GATGATTGTTCTCCCAGCTGATGAATTGTGAGAATCGAGTAAACAAATTTTCCTAATCTTTCTGTTCAAGCGCCATCTAC | 1.17 RPM ratio (pull-down/input)
GATGATTGTTCTCCCAGCTGATGAATTCCAGGTTTCGAGTAAACAAATTTTCCTAATCTTTCTGTTCAAGCGCCATCTAC | 0.814 RPM ratio (pull-down/input)
GATGATTGTTCTCCCAGCTGATGAATTGGGCACTTCGAGTAAACAAATTTTCCTAATCTTTCTGTTCAAGCGCCATCTAC | 0.918 RPM ratio (pull-down/input)
GATGATTGTTCTCCCAGCTGATGAATTTCTCTTTTCGAGTAAACAAATTTTCCTAATCTTTCTGTTCAAGCGCCATCTAC | 1.13 RPM ratio (pull-down/input)
